# Laboratory results from PubChem BioAssay AID1030 (National Center for Advancing Translational Sciences (NCATS), 2008).
# “And” between values parts separate entries of the source, which are not always exact repeats. Identical values can stand only once. In all, about 220,000 compounds went through this assay and about 16,000 (7.3%) were called active. Inconclusive results, whose numbers are uncertain, are shown with a selection of clear calls. The call rests on the fitted dose curve; in most records, active means well fitted inhibition curve with a large enough effect (not every such curve was filed as active); inconclusive means small, poorly fitted or top-dose-only effect, or another doubt; inactive means no such curve, though single readings can be large or run the other way. Potencies of inconclusive entries are left out as doubtful fits.
# Biological target: Aldehyde dehydrogenase 1A1 (Homo sapiens) (UniProt P00352)
# UniProt P00352, sequence (P00352 whole entry, looked up): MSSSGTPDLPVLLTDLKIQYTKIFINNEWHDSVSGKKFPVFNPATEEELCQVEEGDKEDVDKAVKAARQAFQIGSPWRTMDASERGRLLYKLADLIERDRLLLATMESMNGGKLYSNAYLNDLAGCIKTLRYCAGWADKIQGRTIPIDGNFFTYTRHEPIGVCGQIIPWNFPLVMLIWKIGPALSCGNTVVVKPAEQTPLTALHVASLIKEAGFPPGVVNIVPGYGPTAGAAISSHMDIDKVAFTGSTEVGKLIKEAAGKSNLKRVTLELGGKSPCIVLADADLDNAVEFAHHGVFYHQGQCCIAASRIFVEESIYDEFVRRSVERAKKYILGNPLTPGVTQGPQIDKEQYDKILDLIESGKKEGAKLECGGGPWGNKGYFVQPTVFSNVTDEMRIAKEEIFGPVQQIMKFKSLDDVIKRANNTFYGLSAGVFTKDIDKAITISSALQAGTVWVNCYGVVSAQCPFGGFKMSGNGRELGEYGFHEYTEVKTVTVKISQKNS
# Test: qHTS Assay for Inhibitors of Aldehyde Dehydrogenase 1 (ALDH1A1);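 on activity, negative = inhibition: plate controls were no enzyme wells and a reference inhibitor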
# Conditions: Purified ALDH1A1, NADH fluorescence, propionaldehyde substrate; series mostly up to 75.3 µM; activity, negative = inhibition: at the top concentration
# Potency means the concentration at half of the fitted maximal effect; tags describe the fitted curve by direction and shape.
Compound,Potency,"activity, negative = inhibition"
Nc1nc(-c2ccco2)nn1S(=O)(=O)c1ccccc1,"inconclusive [inhibitor, single point]",–
NS(=O)(=O)c1ccc(CCNS(=O)(=O)c2ccccc2)cc1,active: 8.91 µM,–
COc1ccc(CCNS(=O)(=O)c2ccc3c(c2)CC(C)N3C(C)=O)cc1OC (configuration not stated),"inconclusive [inhibitor, partial curve]",–
CCCCNC(C(=O)Nc1ccc(Cl)c([N+](=O)[O-])c1)c1ccccc1 (configuration not stated),active: 5.01 µM,–
Clc1ccccc1Cn1c(/C=C/c2ccco2)nc2ccccc21,"inconclusive [inhibitor, partial curve]",–
Cc1nn2c(N)c(C#N)cnc2c1-c1ccccc1,–,inactive: -2.21%
Cc1ccc(C(=O)Nc2cc(Cl)ccc2N2CCCCC2)s1,"inconclusive [inhibitor, partial curve]",–
O=C(Nc1ccccc1)C1=C(c2ccccc2)S(=O)(=O)CCS1(=O)=O,"inconclusive [inhibitor, partial curve, poor fit]",–
O=c1c(O)cccc2cc(O)c(O)c(O)c12,active: 1.58 µM and active: 8.91 µM,–
Cc1ccc(C(C)C)c(OCC(O)CN2CCN(CCO)CC2)c1 (configuration not stated),"inconclusive [inhibitor, single point]",–
O=C(O)c1ccc(B(O)O)cc1,–,inactive: -6.75%
O=C(NCc1ccc2c(c1)OCO2)Oc1ccccc1,"inconclusive [inhibitor, partial curve]",–
O=C(Nc1nnc(SCc2c(Cl)cccc2Cl)s1)c1ccc2ncsc2c1,"inconclusive [inhibitor, single point]",–
CCOn1c(=O)c(-c2cccs2)[n+]([O-])c2ccccc21,"inconclusive [inhibitor, single point]",–
CCOC(=O)c1ccc2c(c1)NCc1cccc(OC)c1O2,–,inactive: -11.4%
CCOC(=O)N1CCN(C(=O)C2c3cc(OC)c(OC)cc3C(=O)N3CCc4ccccc4C23)CC1 (configuration not stated),"inconclusive [inhibitor, single point]",–
COc1ccc(-c2cc(C(F)(F)F)nc(SCCC(=O)N3CCOCC3)n2)cc1,"inconclusive [inhibitor, single point]",–
CCOC(=O)c1sc(NC(=O)c2cc(-c3ccccc3C)nc3ccccc23)c(C#N)c1C,active: 8.91 µM,–
O=C(Cc1ccc(-n2cccc2)cc1)N1CCc2ccccc21,"inconclusive [inhibitor, single point]",–
C=CCc1cccc(/C=N/NC(=O)CNc2cccc3ccccc23)c1O,"inconclusive [inhibitor, partial curve]",–
Cc1cc(C2N=C(N)Nc3nc4ccccc4n32)c(C)n1-c1ccccc1Cl (configuration not stated),active: 1.12 µM,–
Cc1cccc(NC(=O)N(Cc2cc3cc(C)ccc3[nH]c2=O)CC2COCCO2)c1 (configuration not stated),active: 31.6 µM,–
O=C(c1cccnc1)N1c2ccccc2Sc2ccccc21,–,inactive: 4.22%
CCCOc1ccc(-c2c(C(=O)N/N=C/c3ccc(OC)cc3)nnn2-c2nonc2N)cc1,"inconclusive [inhibitor, single point]",–

Compound,Potency,"activity, negative = inhibition"
N#CCCn1c(=O)c(-c2ccccc2)nc2cnc(N3CCNCC3)nc21,"inconclusive [inhibitor, partial curve]",–
CCOC(=O)c1c(NC(=O)CN(C)C)sc(C(=O)N(CC)CC)c1C,"inconclusive [inhibitor, single point]",–
Oc1cc(Br)ccc1C=Nc1ccc(N2CCCCC2)cc1,–,inactive: -1.19%
CCOc1ccc(-c2n[nH]c(=S)n2/N=C/c2cc3c(cc2[N+](=O)[O-])OCO3)cc1,"inconclusive [inhibitor, partial curve]",–
O=C(O)CCNc1ccccc1C(=O)O,"inconclusive [inhibitor, partial curve]",–
CCN1CCCC1Cn1c(-c2ccccc2)nc2c(N(CCOC)CCOC)nc(C)nc21 (configuration not stated),"inconclusive [inhibitor, single point]",–
COc1ccc(-c2cc(C(=O)Nc3c(C)n(C)n(-c4ccccc4)c3=O)no2)cc1OC,–,inactive: 4.43%
Cc1cnc(NC(=O)CSc2nnc(-c3ccc(Cl)cc3Cl)n2N)s1,active: 20 µM,–
CCCCNC(=O)c1cc2c(-c3ccc(Cl)cc3)nn(C)c2s1,"inconclusive [inhibitor, partial curve]",–
Cc1sc(NC(=O)c2cc(-c3ccc(Cl)cc3)nc3ccccc23)c(C(N)=O)c1C,active: 25.1 µM,–
COCCNC(=O)Nc1ccc2nc(-c3ccco3)c(-c3ccco3)nc2c1,"inconclusive [inhibitor, partial curve]",–
C=CCn1c2ccccc2c2nnc(SCC(=O)OCN3C(=O)c4ccccc4C3=O)nc21,–,inactive: -4.06%
Cc1nc(NC(=O)c2ccccc2)sc1-c1csc(NCCc2ccccc2)n1,"inconclusive [inhibitor, single point]",–
CC(C)CN1CCCC2(CCN(C(=O)c3cccc(F)c3)CC2)C1,"inconclusive [inhibitor, single point]",–
O=C(CCCCl)OCc1cn(-c2ccc(Cl)cc2)nn1,"inconclusive [inhibitor, single point]",–
COc1ccc(CNC(=O)NCc2ccc(OC)c(OC)c2)cc1OC,"inconclusive [inhibitor, single point]",–
CCN(C(=O)CN1CCN(c2ccccc2O)CC1)c1c(N)n(Cc2ccccc2)c(=O)[nH]c1=O,–,inactive: -15.5%
CCN(CC)S(=O)(=O)c1ccc(Cl)c(C(=O)NC)c1,–,inactive: -5.54%
O=C(c1csc2c1CCCCC2)N1CCN(c2ncccn2)CC1,active: 20 µM,–
COc1ccccc1N1CCN(C(=O)c2ccc(S(=O)(=O)N3CCCCCC3)cc2)CC1,"inconclusive [inhibitor, partial curve]",–
Cc1c(CN2CCCC(C(=O)c3cccc(Cl)c3)C2)c(=O)n(-c2ccccc2)n1C (configuration not stated),–,inactive: 11.4%
C[C@H](NC(N)=O)C(=O)OCC(=O)NCc1cccs1,–,inactive: 3.15%
COc1ccccc1CC(=O)Nc1ccc(OC)c(OC)c1,–,inactive: 13.2%
